Whole data set: some 33,000 sequences, median “E-score (-0.5 to 0.5)” near -0.011, cut for the highest 2% near 0.28. This is one part of the list.
Molecular target: T1, Gcr1 (UniProt P07261)
T1 sequence: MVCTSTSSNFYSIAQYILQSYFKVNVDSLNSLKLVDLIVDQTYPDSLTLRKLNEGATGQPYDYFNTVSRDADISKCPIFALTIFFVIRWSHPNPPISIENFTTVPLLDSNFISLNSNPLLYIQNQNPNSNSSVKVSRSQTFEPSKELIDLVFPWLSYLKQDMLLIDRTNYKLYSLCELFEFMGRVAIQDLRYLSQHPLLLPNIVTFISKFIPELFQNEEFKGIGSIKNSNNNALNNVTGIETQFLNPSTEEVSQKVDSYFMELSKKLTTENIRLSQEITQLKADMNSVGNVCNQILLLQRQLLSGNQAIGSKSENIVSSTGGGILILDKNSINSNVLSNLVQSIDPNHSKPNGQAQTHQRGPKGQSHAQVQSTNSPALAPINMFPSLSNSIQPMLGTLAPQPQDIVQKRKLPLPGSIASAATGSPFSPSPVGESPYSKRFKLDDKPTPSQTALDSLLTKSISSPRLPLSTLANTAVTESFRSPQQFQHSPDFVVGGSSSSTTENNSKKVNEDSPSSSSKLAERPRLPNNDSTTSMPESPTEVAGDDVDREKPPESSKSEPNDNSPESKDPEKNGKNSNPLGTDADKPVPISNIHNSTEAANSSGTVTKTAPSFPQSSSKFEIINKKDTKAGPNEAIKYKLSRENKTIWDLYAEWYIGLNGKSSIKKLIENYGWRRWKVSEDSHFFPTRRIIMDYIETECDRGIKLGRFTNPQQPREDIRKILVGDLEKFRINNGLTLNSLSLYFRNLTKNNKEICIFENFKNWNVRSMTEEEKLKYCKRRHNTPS
Test: PBM E-score (8-mer binding enrichment) (E-score (-0.5 to 0.5)); higher = stronger / more preferred TF binding; most listed sequences are background and not binding sites
Details: protein concentration: 100 nM; construct: GST-full length
Outline: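 Detection of bound protein used fluorescent anti-GST, with scans normalised by masliner. The proteins were GST-tagged yeast transcription factors applied at about 100-200 nM to universal all-10-mer Agilent arrays made double-stranded by primer extension. Each ungapped eight-base word, pooled with its reverse complement, was scored with an E-score from the Universal PBM Analysis Suite.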

Sequence | PBM E-score
GTCGAGAC | -0.0717
CGAGCGAA | -0.0543
CGTCGTAG | -0.149
CCGTGGGA | 0.117
CAGAGCCC | -0.0137
CCTACCTA | -0.0173
AAAGCCGA | -0.179
GGCGGTCA | -0.119
TAGTTAAA | 0.00532
ACCCAGCC | -0.137
CATGATCC | 0.0249
GCGCCGAA | 0.108
AGTCAGGC | 0.0988
GAATCATC | -0.0777
CATCTGAA | 0.0901
GCTCGTAC | -0.129
GGCGGTTA | -0.0399
ACCGATTC | 0.0405
GCAAGAGA | 0.0293
TCGAACCA | 0.0127
CGTCGTCA | -0.0334
ATCCGAAT | 0.187
CTGTGATA | 0.076
AGCAGGAA | -0.0368

Sequence | PBM E-score
CCGGAACG | -0.0389
AAGGATCT | 0.0538
CGAAACTC | 0.047
ATAGACTG | -0.111
ACGACCAG | -0.0461
TGTATTAA | 0.187
CGATATTC | 0.134
AATACATG | 0.0783
ACCTCTAA | 0.16
AGGCTGGG | -0.283
CTATCAGA | 0.119
ACGCGCGC | -0.0242
AAACCCCA | -0.135
AGCATTAA | 0.0279
CTGTGGTC | 0.0226
GCACGTAA | 0.00144
CGCTATAG | -0.0823
ATCCGCAG | 0.0551
GTCTTCCA | -0.0117
ATAATTAC | 0.0678
ACGATAAT | 0.203
ACATAATG | 0.202
GGGGCCTA | 0.00152
CTATCAAG | -0.0254

Sequence | PBM E-score
GTCTTCAC | -0.0782
GTAGTAAA | -0.0106
ACAACTAC | -0.0744
ATAGAGCC | -0.113
ACAGGAGG | 0.147
GCGACGGA | -0.00405
AGATATAC | -0.115
AATGGAGG | -0.0955
CTGCGAAC | -0.199
AAGGACAG | -0.163
ATATCGTA | 0.0394
GTTAGGTA | 0.0805
GTGTTAAA | -0.0648
ATATTAGA | 0.134
CCATGCCG | -0.2
AAAGACTC | -0.195
CCAAGGTA | -0.102
GGCAGGTA | -0.0896
AGAAACGC | -0.0117
ATGTCCGG | -0.119
AAAGGAGA | 0.0351
GGAAGCGA | 0.175
GCTTGACC | -0.0319
ACCGGCTA | -0.0906

Sequence | PBM E-score
AAGGATAA | 0.0259
CCGGATAC | 0.196
AATACATC | 0.0446
GGCCATAA | 0.0361
AATCTGGA | 0.257
AGCGGCTC | 0.119
AATACGAC | 0.111
GTCGTTGA | -0.219
CCATTAGG | -0.0417
GGCGGCCC | 0.032
AACATTCA | 0.18
CGAACGAG | 0.00212
CGAGAGAG | -0.16
CGACTCAG | -0.00629
AAATCCCT | -0.0536
CAAGATCA | 0.0637
ACCCCACC | 0.138
AGGATCAA | -0.0866
ATAATCTG | 0.0736
ATACCCCA | 0.0867
CTTTCTAA | 0.157
ACTTACTA | -0.153
